# Reference: the supplement of paper PMC11417369
# The other results are listed elsewhere or left out.
# Tested on: PfAP2-HC AP2 domain (GST-tagged)
# Test: gcPBM binding intensity (ln(normalized median fluorescence intensity)); higher = stronger DNA binding
# Outline: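 The highest Masliner-normalised natural-log median intensity across replicate spots of either probe orientation is reported as binding intensity. GST-tagged P. falciparum DNA-binding domains expressed in E. coli were applied for 1 h to an Agilent 4 × 180k array of primer-extended double-stranded 36-bp intergenic genomic probes plus negative controls, and bound protein was detected with Alexa488 anti-GST antibody and scanned at 488 nm.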
row,Sequence,gcPBM binding intensity (ln)
1,ACAAAAAAATAAAATATATATATATATATAATATAT [CACACA_negctrl_site805],9.68
2,ATAATAAAATAAATCACACATAATATAATGTAATAT [CACACA_site6144],9.74
3,ATAATAATAGTAATATGTACATATATATATATATAT [XGTACX_site7437],10.3
4,ATAAAAAAAAGAAAAACACACACATATATATATATA [CACACA_site8243],10.4
5,ATATATATATATATATGTACATATTTACATTTTGTA [XGTACX_site3529],10.1
6,TATACACATTCGCGTTGTACAAAAAAAAAAAAAAAG [XGTACX_site2880],9.59
7,AATAAAGGAGCCTATGAACACACACCGGTACATATA [CACACA_site9352],10.6
8,AAGATGAACCTTTACACATGCAACAAAAAATATACA [TGCATGCA_site166],9.53
9,ATCAACATTATGTTTAGTACTTAGTGAATTGTTAAT [XGTACX_site4913],9.65
10,AATATTTCTATATGAACATGCAATGTATCTTTTTAT [TGCATGCA_site738],9.6
11,TTTTTATGATTATACTTATATAATTTCATGATTGAA [CACACA_negctrl_site228],9.4
12,AATACTTACCAAAATACACACACACCCAAAATATAT [CACACA_site8559],10.3
13,TTCTAAATTAATAATACACACTTGCTAAAATCATTA [CACACA_site5733],9.58
14,ATTCTCCATGTTTGATGTACTCATATGACGACGGAG [XGTACX_site4923],9.52
15,ATATAAATAACGTGTACACACATATGTATTTATATA [CACACA_site6520],9.93
16,TTCTTATATTGTACAGTACACACCTTTATAATGTTA [CACACA_site7953],10
17,AATTATATTTGAAATACACACATAAAAACCATATAG [CACACA_site7598],9.92
18,TCAAAAAAGACACACCGTACATACTATTTGGACAGG [XGTACX_site7699],9.85
19,ATTTTTATTTTATATACACACAATAATACTAGAATA [CACACA_site7810],9.69
20,ATATATATCTACATATGTACATATATACATTACACA [XGTACX_site7210],9.84
21,AGATATATAAAATATACACACAGTAATATTTATATA [CACACA_site6767],9.86
22,ATTTCATATGGTCAACGTACTCATGCATCCCTCCTT [XGTACX_site437],9.74
23,CTAAGAAGTATTTACACACCAACAAGGCGAAAAAAA [CACACA_site2945],9.83

row,Sequence,gcPBM binding intensity (ln)
1,ATATCTTATATCTTCACACATACACAATAAATACAT [CACACA_site5028],9.94
2,AATGTATTCTCTCATGCACACTTTCTTTAAGGGACC [CACACA_site5245],9.66
3,ATATTTATATTTATGTGTACATATGAAATAATTATT [XGTACX_site7765],9.6
4,TAATATATTATGAGGGGTACATAATATGGTTTATTG [XGTACX_site8301],9.59
5,TAATATATTAATTTTTGTACTTAATTATATGTTTTT [XGTACX_site5654],9.66
6,GTTTTTAAATATGCCATACACACTACTATATAATAA [CACACA_site1927],9.67
7,GAAGAAAAAGAAAAAAGTACATATATTATATTATAA [XGTACX_site7870],9.48
8,TAAGATGATATAGACTGTACATATTGAACTTACAAG [XGTACX_site4290],9.48
9,TATGAAATGCTCCAATCACACATGAATGTAATATAT [CACACA_site5458],9.57
10,ATATGATTTATAAAGTGTACCTTATTATAAGAAACA [XGTACX_site7914],9.46
11,TTTTTTTTTTTTAGAGTACACACTTTTTTACATTTA [CACACA_site3836],9.58
12,GTTGAAAATACAGAACGTACACGTTTGCCATATTGT [XGTACX_site2254],9.69
13,AGTTATAAAATATTTGCATGTAAATATATTATCTAT [TGCATGCA_site1015],9.45
14,ACTTTTATTATTTATATACACACTTGCTGAAATGTT [CACACA_site3637],10.1
15,ACAATGAGGATATATACACACATACATTAAAAAAAT [CACACA_site6955],10.2
16,TTTTTCTGTTCTTTTTGTACTTAAATATATTTATTT [XGTACX_site5658],9.82
17,ATGTGTGTATTTTATAGTACAGTTACAAGCATTTTT [XGTACX_site6351],9.89
18,AAAAAAGAAAAAAGGACACACATAAATATACACCCG [CACACA_site5590],10.2
19,AGAATATAATTTTTATGTACATATATTAAATATATT [XGTACX_site8521],9.63
20,CACAAAAATAAACACACACACATATATATATATATA [CACACA_site4704],10.4
21,AATTTTCTACAAATGTGTACTAAATAAAATATTACT [XGTACX_site7175],9.57
22,TAAGTTCGAATTACTTAAATATTGATTTTTTTAAAA [TGCATGCA_negctrl_site114],9.19
23,AAGAAAAGCAAACAAGTGCATAATAACAAAAAAAAT [GTGCAC_site9725],9.89

row,Sequence,gcPBM binding intensity (ln)
1,TATTTATTTATAAACACACAAATATTTTTATTTATA [CACACA_site6889],9.55
2,TCATAAAATATGTTTTGTACATAAAATTAAACAAGT [XGTACX_site1763],9.59
3,AAATAAGAGAAAATATGTACATACATATATTTATAT [XGTACX_site6210],9.87
4,AAATATAAATAAAGATGTACATTATCTATATGTGAT [XGTACX_site4863],9.73
5,ATATAATTTGTTATACTAACTTTTTAATTATTGATA [GTGCAC_negctrl_site443],9.55
6,AATACGTTTATATATTGTACGTTATATATATATATA [XGTACX_site7452],9.66
7,ATCCGTGTCTGAAATACACACATGATAATGTGAATG [CACACA_site8210],9.67
8,ATGGAAACAAGCATCACACATATAAATATATATATA [CACACA_site4979],9.72
9,AACGAAAGAAAAAAAGCACACACAGTTTTGAGCAAT [CACACA_site8658],10.2
10,ACCATGATAAATGTATTAAATGTATCATAACCTATG [CACACA_negctrl_site513],9.63
11,AGGAATTTATAAAATTGTACTTTTAATTACCTACAG [XGTACX_site3153],9.61
12,CAAACATTTTAATGTACACACACCCACAGACAAACA [CACACA_site5522],10.2
13,TTCTTTTTGAAATATTAACACACATTTTGTTAATTA [CACACA_site9337],9.78
14,ATATATTTTATACATACACACATATATATATTTTTT [CACACA_site3940],9.9
15,TGATTAAATCAAGAAAGTACAAAATGAAATATATAA [XGTACX_site4319],9.54
16,AAAATAATTTTATAGTTGCACTATATCGTATACAAT,9.71
17,TAAAGTGTAAAATTCACACACATATAAATAAATATA [CACACA_site6765],9.93
18,TAATATGAAGATGGCAGTACTCTAGTCAATTTTTAC [XGTACX_site5375],9.68
19,AATTCAAAGAAAAACTGTACGTGTAGCAAACATCCT [XGTACX_site599],9.69
20,AAAATATATAAATATACATGCATAATTAATAGTATA [TGCATGCA_site804],9.78
21,TACAAAAGCTATAACATTCACCACATTATAAAAATA [CACACA_negctrl_site1112],9.78
22,TTTAAAAAAAAAAATACACACATAAAAGTTTTCAAA [CACACA_site6471],9.71
23,TTTTCATTAAGATACTTATAATAGTTTATTAGTAAA [CACACA_negctrl_site586],9.32

row,Sequence,gcPBM binding intensity (ln)
1,TTACAAATATTATAATGTACCCATTTTTTTTGCCTT [XGTACX_site6612],9.57
2,ATATCATCTTCTCTATCATTTTTTTTTTTTTTTTTT [CACACA_negctrl_site1220],9.6
3,TGAGATAAATGTGGTAGTACATTTTTTTTATATATA [XGTACX_site1918],9.48
4,CAAAAATTACCCTTGTGTACACATATATTATATGTA [XGTACX_site1124],9.88
5,ATAAAAAAATCAGACACACACACGTAAACACATACA [CACACA_site5529],10.9
6,CTTTTTTTTTTTTTTTGTCCGTATGAGGGACCTATA [XGTACX_site8839],9.45
7,TCCATTGTCACCTTTTGTACTTAAATTTTTTCCTCC [XGTACX_site1573],9.6
8,ATGTTATAATTTAGTGTGCACATATTAAGAGGAACA,10.1
9,ATATATATTTATATATGTACATATTTTTGTGTATTT [XGTACX_site1183],9.93
10,ATATATATATATATATGTACATAATAATTTTATAAA [XGTACX_site5105],9.74
11,AATAATAATAGAAACACACACACATTTTTAATAATA [CACACA_site1217],10.5
12,TTAATTATGTTTTGGTGTACAATAAATTGAATAGAT [XGTACX_site3306],9.53
13,CTACTTAATATTTGTACACACATATTTAACCTACTA [CACACA_site5725],10.2
14,TATACATACCCACCCACACACAAAAAAAAAAAAAAA [CACACA_site4632],10.2
15,TATACTCATAAATACACACACATATATATATATATA [CACACA_site5822],9.99
16,GGGGGCTTTTATAAAAGTACAAAATGAATAAAAATT [XGTACX_site2393],9.41
17,TCTTTATTATTCGCCACACACATATATATATATATA [CACACA_site3077],10.1
18,TATATATATAAAAATACACACATGAATGAATATATA [CACACA_site419],9.87
19,AAAATATAATATAATGCACACATAAAAAAAAAATCA [CACACA_site7922],10.1
20,TATCTGTAAATGGACACACACATATATATATATATA [CACACA_site5926],9.99
